# Measurements as given in the supplement of paper PMC4604168 (melanoma cell lines).
# The list shows a part of the results. Single values are uncertain, as repeats are few or missing.
# What was measured:
# Assay in all cases: cell count relative to DMSO control; melanoma cells; higher = more viable cells
# Conditions in all cases: library dose: standard library concentration; 72 h
# A101D = system: A101D
# A2058 = system: A2058
# A375 = system: A375
# 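Note: cells treated in 1,536-well plates, then fixed and DAPI-stained, with nuclei counted from automated high-throughput microscope images.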
smiles,measurement,setting,value
"CC(C)C[C@H](NC(=O)[C@H](Cc1ccccc1)NC(=O)c1cnccn1)B(O)O [Bortezomib] + CN(C)S(=O)(=O)c1ccc2c(c1)/C(=C/c1cc3c([nH]1)CCCC3)C(=O)N2 [SU6656] (first compound 0.005 µM, partner dose 2 µM)",cell count,A101D,8.05%
same,cell count,A2058,9.48%
same,cell count,A375,108%
"Cc1cn(-c2cc(NC(=O)c3ccc(C)c(Nc4nccc(-c5cccnc5)n4)c3)cc(C(F)(F)F)c2)cn1 [nilotinib] + CN(C)S(=O)(=O)c1ccc2c(c1)/C(=C/c1cc3c([nH]1)CCCC3)C(=O)N2 [SU6656] (first compound 1 µM, partner dose 2 µM)",cell count,A101D,81.3%
same,cell count,A2058,79.9%
same,cell count,A375,124%
"Cc1cc(Nc2cc(N3CCN(C)CC3)nc(/C=C/c3ccccc3)n2)n[nH]1 + C[C@@H](Oc1cc(-c2cnn(C3CCNCC3)c2)cnc1N)c1c(Cl)ccc(F)c1Cl [Crizotinib] (first compound 0.2 µM, partner dose 1 µM)",cell count,A101D,73.7%
same,cell count,A2058,42.2%
same,cell count,A375,84.8%
"Cc1cn(-c2cc(NC(=O)c3ccc(C)c(Nc4nccc(-c5cccnc5)n4)c3)cc(C(F)(F)F)c2)cn1 [nilotinib] + CC(C)C[C@H](NC(=O)[C@H](Cc1ccccc1)NC(=O)c1cnccn1)B(O)O [Bortezomib] (first compound 1 µM, partner dose 0.005 µM)",cell count,A101D,14.8%
same,cell count,A2058,6.57%
same,cell count,A375,85.3%
"COc1ccc(C2=N[C@@H](c3ccc(Cl)cc3)[C@@H](c3ccc(Cl)cc3)N2C(=O)N2CCNC(=O)C2)c(OC(C)C)c1 [Nutlin-3] + C[C@@H]1CCN(C(=O)CC#N)C[C@@H]1N(C)c1ncnc2[nH]ccc12 [CP690550] (first compound 0.5 µM, partner dose 5 µM)",cell count,A101D,70.4%
same,cell count,A2058,82.7%
same,cell count,A375,86.8%
